Results published in PubChem BioAssay AID1347165 (National Center for Advancing Translational Sciences (NCATS), 2019).
“And” between values parts separate entries of the source, which are not always exact repeats. Equal values may be shown once. The campaign covered roughly 220,000 compounds. About 5,700 (2.6%) were called active. Inconclusive means that the source gave no clear call. Such entries were picked first, then a sample of the others. Calls come from the whole dose curve; as a rule, active = well fitted inhibition curve with a large enough effect; inconclusive = small, poorly fitted or top-dose-only effect; inactive = no such curve, though single readings can be large or run the other way. Potencies of inconclusive entries are doubtful fits and often do not repeat.

The molecules below were run against Lysine-specific demethylase 5B (Homo sapiens) (UniProt Q9UGL1) (assay: Primary screen for KDM5B Histone Demethylases FDH-coupled qHTS). Settings: FDH-coupled NADH fluorescence (FDH is formaldehyde dehydrogenase); activity change, negative = inhibition: at 57.7 µM (top of the series) unless noted.
Sequence of UniProt Q9UGL1 (Q9UGL1 whole entry, looked up): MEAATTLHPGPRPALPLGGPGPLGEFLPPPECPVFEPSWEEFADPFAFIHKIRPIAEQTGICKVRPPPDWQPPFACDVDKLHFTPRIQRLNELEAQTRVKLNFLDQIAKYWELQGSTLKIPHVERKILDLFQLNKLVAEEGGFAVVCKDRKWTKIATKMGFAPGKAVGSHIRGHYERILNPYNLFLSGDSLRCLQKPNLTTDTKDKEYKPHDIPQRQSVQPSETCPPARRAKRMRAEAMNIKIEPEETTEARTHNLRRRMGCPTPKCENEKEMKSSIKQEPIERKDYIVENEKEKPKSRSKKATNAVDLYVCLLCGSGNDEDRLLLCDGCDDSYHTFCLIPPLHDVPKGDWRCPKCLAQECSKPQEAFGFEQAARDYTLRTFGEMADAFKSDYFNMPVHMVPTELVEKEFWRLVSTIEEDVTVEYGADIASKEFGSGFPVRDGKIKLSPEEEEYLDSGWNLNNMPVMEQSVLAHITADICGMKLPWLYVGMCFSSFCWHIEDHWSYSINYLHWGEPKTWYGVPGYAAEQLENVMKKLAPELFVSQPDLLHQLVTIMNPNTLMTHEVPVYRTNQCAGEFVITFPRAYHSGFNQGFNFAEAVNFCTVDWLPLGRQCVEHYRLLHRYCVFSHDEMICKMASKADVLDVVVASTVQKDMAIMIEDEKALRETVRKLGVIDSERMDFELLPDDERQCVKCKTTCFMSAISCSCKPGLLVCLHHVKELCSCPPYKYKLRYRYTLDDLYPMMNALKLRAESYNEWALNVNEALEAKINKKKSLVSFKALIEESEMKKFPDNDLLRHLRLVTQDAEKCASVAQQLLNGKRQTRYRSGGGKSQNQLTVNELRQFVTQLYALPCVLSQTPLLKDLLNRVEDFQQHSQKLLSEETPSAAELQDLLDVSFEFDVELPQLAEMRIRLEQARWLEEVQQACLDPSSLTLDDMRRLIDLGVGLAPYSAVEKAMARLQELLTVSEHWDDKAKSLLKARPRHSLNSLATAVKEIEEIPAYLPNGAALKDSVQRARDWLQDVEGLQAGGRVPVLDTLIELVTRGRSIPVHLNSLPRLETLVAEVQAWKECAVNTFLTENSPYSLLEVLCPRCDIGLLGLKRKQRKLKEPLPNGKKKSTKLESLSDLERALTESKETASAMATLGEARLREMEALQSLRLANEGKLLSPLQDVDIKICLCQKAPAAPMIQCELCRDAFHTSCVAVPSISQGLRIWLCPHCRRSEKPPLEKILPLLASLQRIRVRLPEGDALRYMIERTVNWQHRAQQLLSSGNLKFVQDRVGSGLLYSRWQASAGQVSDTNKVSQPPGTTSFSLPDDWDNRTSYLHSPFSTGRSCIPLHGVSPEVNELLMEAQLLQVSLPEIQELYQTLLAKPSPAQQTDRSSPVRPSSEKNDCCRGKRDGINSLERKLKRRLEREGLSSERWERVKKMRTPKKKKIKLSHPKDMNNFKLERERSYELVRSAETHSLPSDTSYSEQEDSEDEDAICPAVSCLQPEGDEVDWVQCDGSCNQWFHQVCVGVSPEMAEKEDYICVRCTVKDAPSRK
How it was run: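 qHTS format, multiple compound concentrations. Buffer 50 mM HEPES pH 7.5/0.01% Tween-20; 200 nM KDM5BΔAP final; 10 min compound preincubation; substrate-mix levels 12.5 µM peptide, 25 µM α-KG, 0.25 mM NAD⁺; 30 min RT; ΔRFU.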
Note: nearly all actives have a fitted effect of over 70% in size.
Potency is the fitted concentration of half-maximal effect; tags give direction and shape of the fitted curve.
Throughout, for activity change, negative = inhibition: 0% is about no effect.

Compound	Potency	activity change, negative = inhibition
CC(C(=O)NCc1nnc2ccc(-c3ccccc3)nn12)c1ccccc1 (stereo not given)	active: 28.2 µM	
O=C(Nc1cccc(S(=O)(=O)Nc2ccccc2F)c1)c1cncn1-c1ccccc1		inactive: 12.4%
N#Cc1cccc(NC(=O)c2ccccc2Oc2ccccc2)c1		inactive: 11.9%
O=C(c1ccncc1)N1CCCC(Cc2nc(C3CCOCC3)no2)C1 (stereo not given)	inconclusive: 14.1 µM [inhibitor, partial curve]	
COc1ccc(-c2ccc3nnc(CNC(=O)c4ccc(F)c(Cl)c4)n3n2)cc1	active: 28.2 µM	
CCCCN(CCCC)S(=O)(=O)c1[nH]ncc1C(=O)OCC		inactive: -0.121%
COc1ccc(S(=O)(=O)N2CCC(C)CC2)c2cccnc12		inactive: 12.9%
COCc1ccc2c(c1)c(OC(C)(C)C(=O)NCC1CCOCC1)nn2Cc1ccccc1	inconclusive: 31.6 µM [inhibitor, partial curve]	
COc1ccc2c(C)c(-c3cccc4ccccc34)c(=O)oc2c1	inconclusive: 25.1 µM [inhibitor, partial curve, poor fit]	
COc1ccc(C(=O)N=c2sc3c(C)ccc(OC)c3n2C)cc1OC	inconclusive: 20 µM [inhibitor, partial curve, poor fit]	
CC(C)c1cccc(NC(=O)Cn2nc3n(c2=O)CCCCC3)c1	inconclusive: 31.6 µM [inhibitor, single point]	
NC(=S)N/N=C1\CC(c2ccc3c(c2)OCCO3)Oc2ccc(F)cc21 (stereo not given)	inconclusive: 3.16 µM [inhibitor, full curve, poor fit]	
CCC(=O)N1Cc2ccccc2CC2(CCCN2Cc2ccccn2)C1 (stereo not given)	inconclusive: 89.1 µM [inhibitor, partial curve]	
Cc1cc(=O)oc2cc(OCc3cccc4ccccc34)ccc12	inconclusive: 8.91 µM [inhibitor, partial curve, poor fit]	
Cc1noc(C)c1-c1cc(-c2ccncc2)cn2cncc12	inconclusive: 35.5 µM [inhibitor, partial curve, poor fit]	
CNC(=O)c1cc(-c2ccc(F)cc2OC)cc2c1OCCN2Cc1cccnc1	active: 39.8 µM	
CC(=O)c1cccc(-n2cccc2)c1		inactive: 6.71%
N#Cc1ccc(CN2CCc3nc(C(=O)Nc4cccc(C(F)(F)F)c4)oc3CC2)cc1	active: 22.4 µM	
O=C(Oc1ccc2c(=O)c(-c3ccccc3)coc2c1)c1cccs1		inactive: -8.83%
Cc1cc(Cl)cc(C)c1OCC(=O)NCc1cccc(NC(=O)C2CC2)c1		inactive: -5.33%
O=C(c1nc(-c2ccc(Cl)nc2)c2cnccn12)N1CCCC1	inconclusive: 112 µM [inhibitor, partial curve, poor fit]	
CCOC(=O)c1cc2cc(Oc3cccc(C)c3)ccc2[nH]1	inconclusive: 22.4 µM [inhibitor, partial curve, poor fit]	
Cc1cc(C)c(NC(=O)Cc2ccc(-n3c(C)nc4cccnc43)cc2)c(C)c1	inconclusive: 17.8 µM [inhibitor, partial curve, poor fit]	

Compound	Potency	activity change, negative = inhibition
Cc1ccccc1-n1c(C)nnc1SCC(=O)Nc1c(C#N)c(C)c(C)n1Cc1ccccc1		inactive: 5.44%
CCOc1cc(C2C(C(=O)OC)=C(C)NC3=C2C(=O)c2ccccc23)cc(Br)c1OCC (stereo not given)	inconclusive: 2 µM [inhibitor, full curve, poor fit]	
COc1cc(/C=C/c2nc3c(ccc4ccccc43)s2)cc(OC)c1OC		inactive: -8.07%
CSc1ccccc1NC(=O)c1ccc(-c2ccccc2)cc1		inactive: 27.8%
Cc1cccc(C(=O)N2CCC3(CC2)N=C(c2ccc(Cl)cc2)NO3)c1	inconclusive: 25.1 µM [inhibitor, partial curve]	
Cc1ccccc1C(=O)Nc1nc(-c2ccc(Cl)s2)cs1	inconclusive: 35.5 µM [inhibitor, single point]	
CC(C)c1ccc(NC(=O)/C(C#N)=C/c2ccncc2)cc1	inconclusive: 10 µM [inhibitor, partial curve, poor fit]	
CCOC(=O)c1sc(Nc2cc(C)ccc2C)nc1C(F)(F)F	inconclusive: 39.8 µM [inhibitor, single point]	
Cc1ccn2c(NC3CCCC3)c(-c3ccccn3)nc2c1	inconclusive: 39.8 µM [inhibitor, single point]	
Fc1ccc(-c2cnc3n[nH]c(-c4ccccc4)c3n2)cc1	active: 31.6 µM	
COc1ccc(NC(=O)Cc2c(C)c3c(O)cc(C)cc3oc2=O)cc1OC		inactive: -5.38%
O=C(Cn1ccn2nc(-c3ccccc3)c(CO)c2c1=O)Nc1ccccc1	inconclusive: 25.1 µM [inhibitor, single point]	
COc1ccc(-c2[nH]nc3ncc(-c4ccc(C)cc4)nc23)cc1F		inactive: -1.57% [at 86.2 µM]
CC(C)C(=O)N1Cc2ccccc2CC2(CCCN2CC2CCOCC2)C1 (stereo not given)	inconclusive: 56.2 µM [inhibitor, partial curve, poor fit]	
COc1cccc(NC(=O)C2CCN(c3nnc(-n4c(C)ccc4C)s3)CC2)c1	inconclusive: 12.6 µM [inhibitor, partial curve, poor fit]	
Cc1ccc(CNC(=O)C2CCCN(Cc3nc(-c4cccc(C)c4)oc3C)C2)cc1 (stereo not given)		inactive: 4.41%
Cc1nc2c(N)cccn2n1	inconclusive: 14.1 µM [inhibitor, partial curve]	
Cc1cccc(C(=O)OCc2ccc(-c3ccccc3)cc2)n1		inactive: -23.2%
COC(=O)[C@@H]1Cc2nc[nH]c2CN1Cc1ccc(C)cc1	inconclusive: 35.5 µM [inhibitor, partial curve]	
CC(=O)N1Cc2ccccc2CC2(CCCN2Cc2ccccn2)C1 (stereo not given)	inconclusive: 44.7 µM [inhibitor, partial curve, poor fit] and inconclusive: 50.1 µM [inhibitor, partial curve]	
O=c1cc(-c2ccccc2)nc2c(-c3ccccc3)c(C(F)(F)F)[nH]n12	inconclusive: 39.8 µM [inhibitor, partial curve, poor fit]	
Cc1ccc(Cl)cc1N1CCN(C(=O)COCc2cc(-c3ccc4c(c3)OCO4)on2)CC1	inconclusive: 25.1 µM [inhibitor, partial curve, poor fit]	
